In PubChem BioAssay AID1347073 (National Center for Advancing Translational Sciences (NCATS), 2019):
The campaign covered roughly 45,000 compounds. About 200 (0.44%) were called active. About 7% were inconclusive and are not listed. Calls follow the shape of the dose curve; as a rule, active = well fitted activation curve with a large enough effect; inconclusive = small, poorly fitted or top-dose-only effect; inactive = no such curve, though single readings can be large or run the other way. The list shows a part of the results.

assay: qHTS of TDP-43 Inhibitors: NCGC Sytravon Library Screen; conditions: yeast TDP-43 toxicity rescue, BacTiter-Glo growth, 24 h; series mostly up to 46.1 µM; growth rescue (activation): at the top concentration; also: 0% is about no effect; nearly all actives have a fitted effect of over 55% in size
Procedure, shortened: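 TDP-43-expressing yeast, pregrown in raffinose, seeded at OD600 0.02 in galactose medium with compound for 24 hr at 30 deg C. Growth read by BacTiter-Glo luminescence, so rescue of toxicity appears as activation.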

SMILES	growth rescue (activation)
CC1(C)CC(=NOC(=O)c2ccccc2)CC(C)(C)N1O	inactive: 10.4%
Cc1[nH]c2ccc(-c3n[nH]c(=S)n3-c3ccc(Br)cc3)cc2c1C	inactive: 1.05%
Cc1c(C2CC(=O)N(c3ccccc3)C2=O)[nH]n(-c2ccccc2)c1=O (centres undefined)	inactive: -4.04%
Cc1cc(NS(=O)(=O)c2ccc(NC(=O)CNS(=O)(=O)c3ccccc3)cc2)nc(C)n1	inactive: -15.2%
Cc1ccc(/C=N/NC(=O)c2cc(C)oc2C)o1	inactive: 5.34%
O=C(NC(=S)Nc1cccc2cnccc12)c1ccccc1	inactive: -0.378%
COC(=O)c1ccc(C2C(C(=O)c3cc4ccccc4o3)=C(O)C(=O)N2c2cc(C)on2)cc1 (centres undefined)	inactive: -7.66%
CC(=O)NS(=O)(=O)c1ccc(NC(=O)c2ccc3c(c2)NC(=O)CS3)cc1	inactive: 0.217%
Cc1c(C(=O)N2CCOCC2)c(S(=O)(=O)Nc2cccc(Br)c2)c(C)n1C	inactive: -9.89%
CC(NC(=O)c1ccc(C(F)(F)F)cc1)C(c1ccccc1)N1CCOCC1 (centres undefined)	inactive: 14%
CCOC(=O)c1c(NC(C)=O)c2c3c(sc2n1Cc1nc(-c2ccccc2Cl)oc1C)CCCC3	inactive: 2.62%
Cc1ccc(/C=N/NC(=O)c2cc(C)oc2C)cc1	inactive: -9.06%
Cc1cn(C(=O)CN2C(=O)c3ccccc3C2=O)c(C)n1	inactive: -5.32%
CN(C)CCCNc1cc(C(C)(C)C)nc2c(-c3ccccc3)cnn12	inactive: 5.23%
COc1ccc(C(=O)/C=C/c2cn(CC(O)CN3CCOCC3)c3ccccc23)cc1 (centres undefined)	inactive: 12.4%
CCCCCCCNC(=O)c1cc(-c2ccncc2)nc2ccccc12	inactive: 17.5%
Cn1c(C(=O)N[C@@H](Cc2ccccc2)C(=O)NCCC(=O)O)cc2cc(Cl)ccc21	inactive: -20.3%
CN(C)S(=O)(=O)c1ccc(Cl)c(NC(=O)CN2CCCC2)c1	inactive: 2.17%
Cc1ccc(C)c(OCc2nc3ccccc3[nH]2)c1	inactive: 13.8%
CC(C)N1C(=O)S/C(=C/c2ccccc2OCc2ccc(C(=O)O)cc2)C1=O	inactive: -11%
COc1ccc(NC(=S)N(Cc2ccc(C(=O)O)cc2)Cc2ccc(OC)c(OC)c2)cc1	inactive: 5.19%
CCN1/C(=C/C=C/c2oc3ccc4ccccc4c3[n+]2CC)Oc2ccc3ccccc3c21	inactive: -71.3%
O=C(CCCc1c[nH]c2ccccc12)Nc1ccc2ccccc2c1	inactive: -14.2%
Cc1ccc(CNC(=O)COC(=O)C2CCN(S(=O)(=O)c3cccs3)CC2)cc1	inactive: 4.63%
C#CCOc1ccccc1/C=C1/C(=O)ON=C1C	inactive: -8.29%
CCCn1ncc(CN2CCC(CO)(CC3CCCCO3)CC2)c1C (centres undefined)	inactive: -6.21%

SMILES	growth rescue (activation)
CCN(CC)Cc1c(NC(=O)c2ccccc2)sc(C)c1C	inactive: 13.8%
O=C(COC(=O)CCc1c[nH]c2ccccc12)Nc1ccccc1	inactive: -3.27%
COc1nc(Oc2ccc(=O)n(C)n2)nc(N(C)C)n1	inactive: -0.294%
CC(C)C(C(=O)NCc1ccccc1)N(CC1CCCO1)C(=O)CNS(=O)(=O)c1ccccc1 (centres undefined)	inactive: 3.49%
CC(Sc1nnc(C2CC2)n1C1CC1)C(=O)Nc1ccccc1C#N (centres undefined)	inactive: 33.1%
CC(=O)NC(=S)Nc1ccc(NC(=O)c2cccs2)cc1	inactive: -20.7%
OC(CNCc1ccccc1F)COc1cccc2ccccc12 (centres undefined)	inactive: 21.4%
Cc1ccc2c(c1)C(c1ccccc1)N(C(=O)CC(C)C)CC(=O)N2 (centres undefined)	inactive: -16.5%
O=C(C1CCCO1)N1CCN(C(=S)Nc2ccc(F)cc2)CC1 (centres undefined)	inactive: 8.91%
CC(=O)NC(Cc1ccc(F)cc1)C(=O)NC1CCN(C(=O)Nc2ccccc2C)CC1 (centres undefined)	inactive: -2.44%
O=C(COc1ccc(S(=O)(=O)N2CCOCC2)cc1Cl)NCCCn1ccnc1	inactive: -11.4%
O=C(NNC(=O)C1CC2CCC1C2)c1ccccc1 (centres undefined)	inactive: 6.13%
CN(CC(=O)Nc1cccc(S(=O)(=O)N(C)C)c1)Cc1ccccc1	inactive: 0.205%
CCOc1ccc(NC(=O)CCC(=O)NNC(=O)c2cccc([N+](=O)[O-])c2)cc1	inactive: 9.21%
S=c1[nH]nc(-c2ccco2)n1/N=C/c1cccs1	inactive: 18.9%
Cc1cc(C(=O)CSc2nncn2C)c(C)n1-c1ccccc1	inactive: -14.8%
CC(=O)Nc1ccc(NC(=O)COC(=O)Cc2c[nH]c3ccccc23)cc1	inactive: 8.12%
COC(=O)c1ccc(C(=O)OC)c(NC(=O)CS(=O)(=O)Cc2ccccc2)c1	inactive: 9.45%
COc1ccc(NC(=O)c2ccco2)cc1NC(=O)c1c(OC)cccc1OC	inactive: 1.51%
CCN(CC)S(=O)(=O)c1ccc(OCC(=O)NCc2ccco2)cc1	inactive: 21.9%
CC(C)CCn1c(=O)c2ccccc2n2c(CN3CCOCC3)nnc12	inactive: -8.27%
O=C(O)c1ccc(Cl)cc1Nc1nc2cc(Cl)ccc2o1	inactive: 0.946%
COc1ccc(-n2c(=S)[nH]c3cc(C(=O)O)ccc3c2=O)cc1	inactive: -7.99%
COc1ccc(NC(=O)C2Cc3c(-c4ccco4)ccnc3O2)cc1OC (centres undefined)	inactive: 10.7%
O=c1c(Cl)c(N2CCOCC2)cnn1-c1ncc(C(F)(F)F)cc1Cl	inactive: -8.92%
Cc1cccc(C)c1NC(=O)N1CC=C(n2c(=O)[nH]c3ccccc32)CC1	inactive: -5.96%

SMILES	growth rescue (activation)
Cn1cccc1-c1cc(C(=O)N/N=C/C=C/c2ccccc2)[nH]n1	inactive: 17.5%
COc1ccccc1CNC(=O)C1CCN(c2nnc(C)c3c(C)n(-c4ccccc4)nc23)CC1	inactive: 4.14%
COc1ccc(Cl)cc1NC(=O)C(C)N(C)Cc1ccc(C(F)(F)F)cc1 (centres undefined)	inactive: 1.37%
CC1CCc2nc(NC(=O)CN3CCN(c4ccccc4)CC3)sc2C1 (centres undefined)	inactive: -24.2%
Cc1cc(C)c(NC(=O)C2CCC(=O)N2)c(C)c1 (centres undefined)	inactive: 8.04%
COc1ccccc1OCC(=O)Nc1ccc(S(=O)(=O)N2CCCC2)cc1	inactive: 23.6%
Cc1cccc(NC(=O)N2CCC(NC(=O)C3CCCCC3)CC2)c1	inactive: 10.5%
Cc1cccc(Cc2nnc(CCC(=O)NCc3cn4ccccc4n3)o2)c1	inactive: 0.578%
C[C@@H](C(=O)Nc1nc2ccc(F)cc2s1)N1C(=O)C2CC=CCC2C1=O (some centres undefined)	inactive: 14.3%
CCN(CC)CCCNC(=O)Cn1cnc2sc(C)c(S(=O)(=O)N3CCC(C)CC3)c2c1=O	inactive: -15.2%
COCCNCC(=O)Nc1ccc(OC(F)(F)F)cc1	inactive: 3.71%
CCCS(=O)(=O)N1CCCC(C(=O)N2CCCCC2)C1 (centres undefined)	inactive: 12.6%
CCN(CC)S(=O)(=O)c1ccc(C(=O)Nc2cc(C)on2)cc1	inactive: 11.9%
CC(=O)c1cccc(CN2CCN(C3CCCCC3)C(CCO)C2)c1 (centres undefined)	inactive: 24%
CSc1cccc(NC(=S)N(CCC(C)C)C2CCN(C(C)=O)CC2)c1	inactive: 6.15%
COc1cc(OC)cc(-c2noc([C@@H]3O[C@H](CO)[C@@H](O)[C@H]3O)n2)c1	inactive: 3.94%
O=C(NCCc1nc2ccccc2[nH]1)/C(=C/c1ccc2c(c1)OCO2)NC(=O)c1ccccc1	inactive: 15.4%
O=C(Cn1cc(C(=O)c2cccs2)c2ccccc21)Nc1ccc(Br)cc1	inactive: -3.62%
C/C=C(\C)c1nnc(NC(=O)c2ccco2)s1	inactive: 30.4%
Cc1nc2c(OCc3ccc(C(F)(F)F)cc3)cccn2c1N(C)C(=O)CCC1CCCC1	inactive: -51.2%
Cc1ccc(SCC(=O)Nc2ccc3c(c2)C(=O)NC3=O)cc1	inactive: 1.74%
Cc1noc(C)c1S(=O)(=O)Nc1ccc(C(=O)N2CCN(c3ccc(Cl)cc3)CC2)cc1	inactive: 12.8%
CCCCN(C=O)c1c(CC)nc2ccc(C(=O)N3CCN(S(=O)(=O)CC)CC3)cn12	inactive: 0.0844%
Cc1cc(C([O-])=C(C(=S)Nc2ccccc2)[n+]2ccccc2)c(C)n1-c1ccccc1	inactive: -6.21%
CC/C(=N\NC(N)=O)c1ccc(OC(F)F)cc1	inactive: -7.05%
CCC(=O)c1ccc(OCC(=O)NCc2ccccc2CN2CCCC2)cc1	inactive: 17.1%

SMILES	growth rescue (activation)
C=CCOc1ccc(CN(C)CC(O)COc2ccc(CCC(C)=O)cc2)cc1 (centres undefined)	inactive: -3.07%
O=[N+]([O-])c1cc(C(F)(F)F)c(Cl)cc1N1CCN(CCO)CC1	inactive: -7.59%
Cc1cc(C)c2c3c(c(-c4ccccc4)n2n1)c(=O)n(C)c(=O)n3C	inactive: 4.8%
COc1ccc(Cc2nnc(SCC(=O)Nc3ccc(C)c(C)c3)o2)cc1OC	inactive: -16%
N/N=C(\Cc1cscn1)c1ccc(O)cc1O	inactive: 14.9%
COc1ccc(C2CC(=O)C3=C(C2)Nc2ccccc2N(C(=O)CCC(=O)O)C3c2ccc(F)cc2)cc1OC (centres undefined)	inactive: 27.1%
Cc1cc(C)nc(-n2nc(C)c(Oc3ccccc3O)c2C)n1	inactive: 5.12%
CN(C)CCN(Cc1ccccc1)C(=O)[C@H](Cc1ccccc1)N1C(=O)c2ccccc2C1=O	inactive: 1.98%
CC(=O)c1ccc(N2CCN(C(=O)CCCn3c(=O)[nH]c4ccsc4c3=O)CC2)cc1	inactive: 2.39%
O=C(/C(=C/c1cccc(Cl)c1)c1nc2ccccc2[nH]1)c1ccccc1	inactive: 19.2%
O=C(c1ccc(S(=O)(=O)c2ccccc2)cc1)N1CCCCCC1	inactive: 5.87%
Cc1ccccc1NC(=S)NCc1ccco1	inactive: 14%
N#CCCn1cc(/C=N/NC(N)=S)c(-c2ccc(Br)cc2)n1	inactive: 12.5%
CCSc1nc(-c2ccccc2)c2cc(Cl)ccc2n1	inactive: -1.07%
Cn1c(=O)n(C)c2cc(NC(=O)COc3ccc(Cl)cc3)ccc21	inactive: 37.9%
O=C(c1cc(S(=O)(=O)N2CCOCC2)c(Cl)cc1Cl)N1CCN(S(=O)(=O)c2cccc(F)c2)CC1	inactive: -9.48%
CC(=O)Nc1cccc(-c2csc(C(O)c3cccc(Cl)c3)n2)c1 (centres undefined)	inactive: 15.3%
CCCCCCn1c(=O)c(C(=O)N/N=C/c2cccc(F)c2)c(O)c2ccccc21	inactive: 0.876%
NC(=O)c1ccc(NC(=O)COC(=O)C2COc3ccccc3O2)cc1 (centres undefined)	inactive: 12.2%
COc1ccc(CCNC(=O)C(=O)NCCOc2ccccc2Cl)cc1OC	inactive: -2.11%
COc1ccccc1N(CC(=O)NCCC1=CCCCC1)S(=O)(=O)c1ccccc1	inactive: 10.7%
COc1ccc(OCCN2CCC(C(=O)NC(c3ccc(Cl)cc3)c3cccnc3)CC2)cc1 (centres undefined)	inactive: 0.906%
Cc1cc(C)cc(COc2ccc3c(C)c(CC(=O)O)c(=O)oc3c2C)c1	inactive: -4.74%
CCOc1ccc2cc(S(=O)(=O)N3CCN(C)CC3)ccc2c1	inactive: 20.6%
COc1ccc(C2c3[nH]c4ccccc4c3CCN2C(=O)c2ccc(=O)n(C)n2)c(F)c1 (centres undefined)	inactive: -3.64%
O=C(CCCOc1ccccc1)Nc1ccc(S(=O)(=O)Nc2ccccn2)cc1	inactive: 10.3%
